The text below walks through data of PubChem BioAssay AID485344 (National Center for Advancing Translational Sciences (NCATS), 2010).

In all, about 340,000 compounds went through this assay and about 6,900 (2%) were called active. Rule as the data show it: active = inhibition above about 30%; inactive = below that, where a call was filed. The entries are a selection whose mix differs from that of the whole data set. The source gives no active or inactive call for entries shown without one.

UniProt P14416, sequence (P14416 whole entry, looked up): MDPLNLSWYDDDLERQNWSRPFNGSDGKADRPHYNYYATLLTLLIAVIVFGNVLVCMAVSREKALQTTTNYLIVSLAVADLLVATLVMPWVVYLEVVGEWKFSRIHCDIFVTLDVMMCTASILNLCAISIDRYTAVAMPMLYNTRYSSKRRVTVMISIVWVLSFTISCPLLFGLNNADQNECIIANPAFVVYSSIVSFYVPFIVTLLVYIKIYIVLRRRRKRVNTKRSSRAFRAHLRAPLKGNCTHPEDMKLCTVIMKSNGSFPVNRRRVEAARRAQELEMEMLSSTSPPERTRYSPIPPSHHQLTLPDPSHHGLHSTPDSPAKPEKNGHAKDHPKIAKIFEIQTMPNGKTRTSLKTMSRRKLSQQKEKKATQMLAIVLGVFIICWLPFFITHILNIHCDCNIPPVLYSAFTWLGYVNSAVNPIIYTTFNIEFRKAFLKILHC

This test concerns the target D(2) dopamine receptor (Homo sapiens) (UniProt P14416). Put plainly: HTS Assay for Allosteric Antagonists of the Human D2 Dopamine Receptor: Primary Screen for Antagonists. Also: 0% is about no effect. As to conditions: HEK293 TREx D2 cells, calcium flux, dopamine EC80; at 10 µM; stronger effect = higher value. In short, it runs like this:
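Antagonism is scored as inhibition of an EC80 dopamine-evoked calcium signal in a force-coupled, tetracycline-inducible HEK293 T-REx D2 line, with compound present 180 s before agonist.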
In general terms: A change in cytosolic calcium serves as a functional read-out for many receptors and channels.
Regarding `COc1ccc(Cl)cc1NC(=O)CN(c1cccc(C)c1C)S(C)(=O)=O`, the inhibition (in general, the change of the read-out against control, counted positive when it falls) is 8.67%.

In the case of `Cc1cccc(S(=O)(=O)c2cn(Cc3ccc(F)cc3)c3cc(N4CCCCC4)c(F)cc3c2=O)c1`, the inhibition is -3.83%.

Turning to `COc1ccccc1N1CCN(CCCNC(=O)Nc2ccccc2)CC1`, the inhibition was active: 101%.

Take `Cc1ccc(NC(=O)COC(=O)c2ccc(CN3CCCC3=O)cc2)c(Cl)c1`: the inhibition is active: 34.8%.

Consider `COc1ccc(CCNC(=O)Cn2c(=O)c3sccc3n(CC(=O)Nc3cccc(C(F)(F)F)c3)c2=O)cc1OC`, for which the inhibition was -27.5%.

Turning to `O=C(NCc1cccc(Cl)c1)c1cnc(N2CCCCC2)c2ccccc12`, the inhibition was -10.3%.

For `Cc1cccc(N2CCN(c3ncnc4onc(C)c34)CC2)c1C`, the inhibition is -5.6%.

As for `CCc1ccc(C2N=C(N)Nc3nc4ccccc4n32)cc1` (configuration not stated), the inhibition stood at 21.7%.

In the case of `Cc1ccc(-n2ncc(C(=O)NCCc3ccsc3)c2C2CCN(C(=O)OC(C)(C)C)CC2)c(C)c1`, the inhibition is -12%.

`COc1ccc(Cl)cc1NC(=O)C(OC)c1ccccc1` (configuration not stated): the inhibition is active: 30%.

Consider `CCCCNC(=O)CN1C(=O)CSc2ccc(S(=O)(=O)N3CCC(C)CC3)cc21`, for which the inhibition was -4.45%.

On to `CC(=O)c1cccc(N(C(=O)Cn2nnc3ccccc32)C(C(=O)NCc2ccccc2)c2ccc(F)cc2)c1` (configuration not stated), for which the inhibition was 11.6%.

For the molecule `Cc1ccc(NC(=O)CN(C)S(=O)(=O)c2ccc3c(c2)CCC(=O)N3)c(C)c1`, the inhibition was found to be 4.88%.

On to `Cc1cc(NC(=O)CSc2nc(-c3ccco3)cc(C(F)(F)F)n2)no1`, for which the inhibition was active: 36%.

`Cc1ccc(CN2CCCn3nc(C(=O)NCc4ccccc4Cl)cc3C2=O)cc1`: the inhibition came out at 5.41%.

For `CCCN1CCN(c2ncc3c(n2)CCN(Cc2ccc(OC)c(OC)c2OC)C3)CC1`, the inhibition was -6.83%.

As for `Cc1ccc(NC(=O)Cn2nc(-c3ccc(F)cc3)c3cnc4ccc(C)cc4c32)cc1`, the inhibition is 4.49%.

For `COc1ccccc1-c1noc(-c2ccc(N(C)Cc3ccccc3)c([N+](=O)[O-])c2)n1`, the inhibition was 22%.

In the case of `CCCCN(CC)C(=O)CCn1c(=O)c2cccn2c2cccnc21`, the inhibition came to 4.16%.

For `COc1ccccc1C(=O)c1c(N)c(-c2nc(-c3ccccc3)cs2)c2ccccn12`, the inhibition was found to be 1.24%.

Take `CCOc1ccc(CNCc2c(C(=O)O)c(C)n(Cc3ccc(F)cc3Cl)c2C)cc1`: the inhibition was 16.8%.

For `CCN1CCN(C(=O)c2ccc3c(c2)N(Cc2ccccc2)C(=O)c2ccccc2S3=O)CC1` (configuration not stated), the inhibition was 17.3%.

For the molecule `Cc1nn(CCCC(=O)NCc2cccc(F)c2)c(=O)c2nn(-c3ccccc3)c(C)c12`, the inhibition was determined as 0.216%.

For the molecule `COc1ccc(OC)c(-c2nc(C(N)=O)c3c(n2)n(-c2ccc4c(c2)OCO4)c(=O)n3C)c1`, the inhibition was determined as 5.25%.

As to `S=C(NCCc1ccccc1)NC1CC2CCC(C1)N2Cc1ccccc1` (configuration not stated), the inhibition was active: 62.7%.

In the case of `CCOC(=O)c1c(S(=O)(=O)NCC(=O)Nc2ccc(Cl)c(C(F)(F)F)c2)c(C)n(C)c1C`, the inhibition amounted to 7.55%.

As to `CCCCc1nn2c(=O)cc(COC(=O)c3cccc(NC(=O)c4cccc(C)c4)c3)nc2s1`, the inhibition stood at 6.97%.

For `CSc1ncc(Cl)c(C(=O)Nc2nc3ccc(F)cc3s2)n1`, the inhibition is -1.03%.

As for `Cc1nnc(SC(C)C(=O)Nc2ccc(S(=O)(=O)NC3CCCCC3)cc2)s1` (configuration not stated), the inhibition was active: 61.3%.

Regarding `COc1cccc(NC(=O)CN(Cc2ccccc2)S(=O)(=O)c2ccc3nc(C)sc3c2)c1`, the inhibition is -4.53%.

For `Cc1nc2ccc(C(=O)N3CCCC(CO)(Cc4ccc(F)cc4F)C3)cc2nc1C` (configuration not stated), the inhibition is active: 30.1%.

For `CC(C)c1nnc(NC(=O)c2nc(SCc3ccc(F)cc3)ncc2Cl)s1`, the inhibition is -1.2%.

Consider `Cc1cc2n(n1)CCCN2C(=O)Nc1ccc(Cl)cc1`, for which the inhibition was -20%.

Regarding `CCCSc1ncc(Cl)c(C(=O)Nc2sc3c(c2C(=O)NCC)CCCC3)n1`, the inhibition worked out at 14.6%.

`CCCn1ccc2c(OCC(=O)NCc3ccc(F)cc3)cccc2c1=O`: the inhibition is -17.7%.

`Cc1cccc(-n2c(=O)c3c(n4cnnc24)-c2ccccc2CC32CCCCC2)c1`: the inhibition was active: 31.4%.

As to `CCCCN(C)CC(O)Cn1cc(/C=C/C(=O)c2ccc(OC)c(OC)c2)c2ccccc21` (configuration not stated), the inhibition is 3.16%.

In the case of `Cc1ccc(-c2nc(S(=O)(=O)c3ccc(Cl)cc3)c(N3CCCCC3)o2)cc1`, the inhibition was -18.5%.

With `Cc1nn(C)c2ncc(C(=O)c3ccccc3O)cc12`, the inhibition was active: 47.9%.

With `COc1ccc(CNC(=O)Cn2nnc(-c3ccccc3F)n2)cc1`, the inhibition is -9.36%.

For `CCc1cc2c(cc3c(=O)n(CC(=O)N4CCCCC4)nc(CC)n32)s1`, the inhibition is -0.203%.

In the case of `COc1ccc(Cl)cc1C(=O)Nc1ccc2oc(-c3ccc(C(C)(C)C)cc3)nc2c1`, the inhibition was -2.01%.

Consider `CCOc1ccc(S(=O)(=O)N2CCN(S(=O)(=O)c3ccc(C(C)=O)cc3)CC2)cc1`, for which the inhibition was active: 35.7%.

On to `Cc1cc(NC(=O)c2ccc(-c3ccc(Br)cc3)o2)cc(-c2nc3ncccc3o2)c1O`, for which the inhibition amounted to 6.1%.

On to `Cc1ccc2nc(Cl)c3cc(C(=O)NCCCN4CCC(C)CC4)sc3c2c1`, for which the inhibition was found to be 14.9%.

As to `COc1ccc(NC(=O)Cc2csc(COc3cccc(C)c3)n2)cc1OC`, the inhibition was 1.43%.

Take `Cc1ccc(C)c(S(=O)(=O)c2nnn3c2nc(NCc2cccs2)c2sccc23)c1`: the inhibition is 17.4%.

On to `COc1ccc2c(c1)c1c(c(=O)n(-c3ccccc3)c(=O)n1CC(=O)Nc1ccc(F)cc1)n2C`, for which the inhibition was -3.31%.

For `COc1ccc(N2CC(NC(=O)c3ccc4c(c3)OCO4)CC2=O)cc1OC` (configuration not stated), the inhibition came out at 21.9%.

`Cc1ccc(Cl)cc1N1CCN(C(=O)c2cccn2-c2nnc(N3CCCCC3)s2)CC1`: the inhibition was 13.1%.

Consider `CC1C(=O)Nc2ccc(S(=O)(=O)Nc3ccccc3Br)cc2NC1=O` (configuration not stated), for which the inhibition is 17.3%.

On to `COc1cc(Cl)ccc1OC(=O)c1cn(-c2ccccc2OC)c(=O)c2ccccc12`, for which the inhibition came to 1.9%.

Consider `CC1CCN(CCOc2ccc(Cl)c(Cl)c2)CC1`, for which the inhibition was active: 83.6%.

As to `CC(C)CCNC(=O)c1ccc(Cn2c(SCC(=O)NC(C)C)nc3ccccc3c2=O)cc1`, the inhibition came to 17.6%.

For `Cc1ccc(-n2nc(C(=O)N3CCN(c4ccccc4F)CC3)c3c4ccccc4n(C)c3c2=O)cc1`, the inhibition was -0.721%.

As to `COc1cccc(CNC(=O)CN2N=C(c3ccc(C)cc3)CCC2=O)c1`, the inhibition worked out at 11.3%.

Take `O=C(NCc1ccccc1Cl)c1cccn1-c1nnc(N2CCCCC2)s1`: the inhibition is -7.25%.

For the molecule `Cc1ccc(N(C)S(=O)(=O)c2ccc3c(c2)C(C)(C)C(=O)N3C)cc1C`, the inhibition is -4.49%.

On to `CCC(C(=O)N1CCN(c2cc(Cl)ccc2C)CC1)n1nc(C)c2sc3ccccc3c2c1=O` (configuration not stated), for which the inhibition turned out to be 14.7%.

In the case of `CC(=O)c1ccccc1NS(=O)(=O)c1cc2c(cc1C)NC(=O)CO2`, the inhibition was determined as 12.5%.

As to `CCN(CC)CCCNC(=O)CCCn1c(=O)[nH]c2ccc(Br)cc2c1=O`, the inhibition turned out to be 14%.

Consider `CCOc1ccc(-c2noc(CSc3nnc(-c4ccccc4)n3-c3ccccc3)n2)cc1`, for which the inhibition was found to be 0.931%.

Consider `CN1C(=O)c2ccccc2Sc2ccc(NC(=O)Cc3c(F)cccc3Cl)cc21`, for which the inhibition was -18.2%.

As to `CCC(CC)C(=O)Nc1ccc(C(=O)OCc2cc(=O)n3nc(C4CC4)sc3n2)cc1`, the inhibition stood at 9.7%.

Regarding `CCC(=O)Nc1ccc(C)cc1-c1nc2ccccc2n(C(C)C(=O)Nc2ccccc2CC)c1=O` (configuration not stated), the inhibition came to 24.4%.

Take `Cc1ccccc1N(C)C(=O)c1noc2c1COc1ccccc1-2`: the inhibition turned out to be 12.5%.

Consider `Cc1cccc(-c2nc(SCC(=O)NCC3CCCO3)c3c(=O)n(C)c(=O)n(C)c3n2)c1` (configuration not stated), for which the inhibition is -8.72%.

Regarding `CCOC(=O)c1ccc(NC(=O)Nc2ccc3snnc3c2)cc1`, the inhibition was -8.45%.

Take `O=C(NCCN1C(=O)S/C(=C\c2cccnc2)C1=O)c1ccc([N+](=O)[O-])s1`: the inhibition was active: 33.2%.

Consider `C#CCn1c(/C=C/c2ccc(Cl)cc2)nc2ccccc21`, for which the inhibition stood at 17.1%.

In the case of `CCN(c1ccc(OC)cc1)S(=O)(=O)c1nnc(NC(=O)COc2ccc(F)cc2)s1`, the inhibition stood at 3.48%.

`CC(C)CC(=O)NCC(c1ccc2c(c1)OCO2)N1CCN(c2ccccc2F)CC1` (configuration not stated): the inhibition worked out at 1.67%.

As for `COc1ccc(CCNC(=O)c2c(C)oc3nc(C)nc(N4CCOCC4)c23)cc1OC`, the inhibition amounted to 4.01%.

For `Cc1cc(C)n(-c2nc3ccccc3nc2Nc2cccc(C(=O)NCCc3ccccc3)c2)n1`, the inhibition is -3.85%.

For the molecule `Cc1ccc(NC(=O)C2CCCN(S(=O)(=O)c3cccc4cccnc34)C2)c(Br)c1` (configuration not stated), the inhibition came to 13.1%.

As for `Cn1cc(S(=O)(=O)N2CCCCCC2)cc1C(=O)NCc1ccc(Cl)cc1`, the inhibition was -13.5%.

For `Cc1onc(-c2ccccc2Cl)c1C(=O)Oc1ccc(Br)cc1`, the inhibition is 3.22%.

Turning to `COc1cccc(C(=O)Nc2cccc(OCC(=O)O)c2)c1`, the inhibition is active: 33.7%.

Turning to `CCOc1ccccc1C(=O)N1CCN(CCc2ccccn2)CC1`, the inhibition is -13.1%.

Turning to `Cc1ccc(C2=Nc3ccccc3N(CC(=O)Nc3ccccc3C)C(=O)C2)cc1C`, the inhibition worked out at 2.06%.

As to `Cc1ccc(CNC(=O)NC2COc3ccccc3C2)cc1` (configuration not stated), the inhibition amounted to 3.03%.

`Cc1c(Cl)cccc1NC(=O)Cn1nc(C(F)(F)F)c2c1CCC2`: the inhibition came to 7.12%.

With `Cc1cc(C)c(NC(=O)Cn2c(=O)n(CCc3ccccc3)c(=O)c3ccccc32)c(C)c1`, the inhibition is 18.4%.

On to `Nc1ccccc1C(=O)NCc1ccc(Cl)cc1`, for which the inhibition was active: 30.4%.

On to `COc1ccc(OC)c(CNC(=O)c2ccccc2NC(=O)c2nsc3ccccc23)c1`, for which the inhibition is -6.92%.

Regarding `Cc1ccc(N2CCn3c2nc2c3c(=O)n(CCCc3ccccc3)c(=O)n2C)cc1`, the inhibition stood at 11.6%.

As for `CC(=O)Nc1ccc(C)cc1-c1nc2ccccc2n(CC(=O)c2ccc(Cl)cc2)c1=O`, the inhibition is 15.7%.

As for `COC(=O)c1cc2oc3ccccc3c2n1CC(=O)Nc1cc(OC)cc(OC)c1`, the inhibition was -8.58%.

For the molecule `COc1cccc2cc(-c3cn4c(n3)sc3cc(F)ccc34)c(=O)oc12`, the inhibition was -14.6%.

For the molecule `CC(=O)N(Cc1cccnc1)c1nc2ccc(F)cc2s1`, the inhibition was -12.4%.

Turning to `COc1ccc(C(=O)NCC(c2cccs2)S(=O)(=O)c2ccc(F)c(C)c2)cc1` (configuration not stated), the inhibition came out at 6.72%.

With `COc1ccccc1-c1nn2c(=O)cc(CN3CCN(S(=O)(=O)c4ccc(C)cc4)CC3)nc2s1`, the inhibition was -3.23%.

In the case of `Cc1ccc(-n2nnnc2CNC(=O)c2ccc(F)cc2)cc1C`, the inhibition amounted to 16.3%.

`N/C(=N\c1nc2c(c(=O)[nH]1)CCC2)Nc1ccccc1`: the inhibition is active: 30%.

Consider `Clc1cccc(N2CCN(c3ncnc4c3nc3n4CCCC3)CC2)c1`, for which the inhibition is -5.77%.

`CCOC(=O)c1ccc(NC(=O)C2Cc3ccccc3C(=O)O2)cc1` (configuration not stated): the inhibition is -4.33%.

As for `Cc1cccc(-c2noc(CNC(=O)c3ccco3)n2)c1`, the inhibition is -8.45%.
